Results from the supplement of paper PMC3334620.
In all, about 33,000 sequences were measured (“E-score (-0.5 to 0.5)”: median about -0.013, highest 2% from about 0.3 on). This is one part of the list.

Biological target: T1, Msn1 (UniProt P22148)
T1 sequence: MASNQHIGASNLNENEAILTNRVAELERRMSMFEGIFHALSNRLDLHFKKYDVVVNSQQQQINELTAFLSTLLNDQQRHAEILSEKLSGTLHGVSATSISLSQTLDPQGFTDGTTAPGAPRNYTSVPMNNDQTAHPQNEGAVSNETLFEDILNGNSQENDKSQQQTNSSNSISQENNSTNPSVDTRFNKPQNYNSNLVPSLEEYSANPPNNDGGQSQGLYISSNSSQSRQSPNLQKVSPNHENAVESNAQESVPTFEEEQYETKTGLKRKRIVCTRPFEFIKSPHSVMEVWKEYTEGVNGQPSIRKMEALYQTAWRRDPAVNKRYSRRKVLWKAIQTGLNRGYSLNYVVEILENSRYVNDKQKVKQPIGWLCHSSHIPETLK
Assay: PBM E-score (8-mer binding enrichment) (E-score (-0.5 to 0.5)); higher = stronger / more preferred TF binding; most listed sequences are background and not binding sites
Settings: protein concentration: 200 nM; construct: GST-full length
Summary of the method: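 Universal all-10-mer Agilent arrays, fresh or stripped once, were converted to double-stranded form by primer extension. GST-tagged yeast transcription factors from PURExpress in vitro transcription/translation, full-length or DNA-binding domain only, were applied at about 100-200 nM and detected with fluorescent anti-GST. After masliner normalisation, the Universal PBM Analysis Suite scored each ungapped eight-base word together with its reverse complement by E-score.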

Sequence	PBM E-score
ACTCTTTG	-0.0656
AGCTGCAC	-0.164
GACTCCAC	-0.324
ACTACCCT	-0.202
ACCCTTAA	-0.119
CTAAGAAA	0.228
GACGTCAC	0.0733
AAAAGGAT	0.26
ACCATAAC	-0.0245
CCTCTGTC	-0.12
CACGTAAA	-0.102
AGAAACAC	-0.0303
CCCGCTAC	-0.0742
ACTTACAT	-0.0555
AGGAGTAG	-0.0789
AGATAGGA	-0.111
ACATCGAA	0.186
AGGACCAA	0.0094
CCACCTAC	-0.0906
CATAAAAG	0.0593
AACTCCAA	0.095
CAACAAGA	0.0127
GAGTTCCA	-0.0703
AGCGTGCC	-0.224
CTCAGTAC	0.121

Sequence	PBM E-score
ACTGGCTA	-0.128
CGTTTCTC	-0.159
CGCCCCAA	0.0901
GCTGTCCC	-0.0712
AATCCATC	-0.105
CTGTAGCA	-0.156
GCTTAGAA	-0.0192
GGTAGGGA	-0.129
AAGGCCGG	0.0674
TCGTTACA	-0.055
ATCTTAAT	0.0934
CTGGTTAC	-0.0717
GGCTCGGA	-0.00346
CAAGCGAA	0.0496
ATTTGGGG	-0.0451
TCGGCCCA	0.0853
CAAAGTTA	0.162
CCTTAGTC	-0.0799
AGCAACTA	0.118
GAGGCGAC	-0.115
GCTTCTAA	-0.151
CGCAACAA	0.069
CCCTTAAA	-0.0133
CCCATATC	-0.0275
ATTTCCAG	0.0655

Sequence	PBM E-score
GCGCCTCA	-0.0816
CGAACGCA	0.221
AACCGGCA	-0.0265
CCATGCAG	-0.187
ATCGCGGC	0.195
CACTCAAG	-0.265
ACATTTCT	0.204
AGGGCAAC	-0.00454
AAAACAAC	0.00138
ATTGCTTC	0.0557
AAAATAAG	0.167
CCTCCATC	-0.375
CAGGTTGA	-0.169
CACATAGG	-0.11
ACCAACTA	0.0419
TCCGGAGA	0.0632
CATCATCG	-0.0227
CCACCTAG	-0.169
AAGACCGC	-0.0468
ATTTACGA	0.128
GAGTGATC	-0.0219
ATCTGACC	0.106
GCTGGGCA	-0.119
TAGGCAGA	0.128
AGCGTGAA	-0.135

Sequence	PBM E-score
AGGTCCTC	-0.119
CGCTGTAC	0.0558
CGCCGTCA	-0.114
TCCGCTAA	-0.0914
ACCCTTCT	-0.157
ACATGGGC	0.154
GAGCGCGA	0.156
CACGGAAG	-0.0308
AACGTAGC	0.0549
ATGACTTA	0.194
GCTGCTCC	-0.218
CTGTAGAC	0.0314
CGCGCGCG	-0.00147
ATACTCGA	-0.012
CTGGATTA	0.0423
TCGCTGCA	-0.0828
TTACACAA	0.208
AAGCATCA	-0.146
ACCACTTC	-0.191
AACGCAAT	0.00875
ATAGTACA	0.219
CGGTGTAG	-0.0126
ACTTGCGC	0.0802
CCATTCTC	-0.018
AGCTGCGC	-0.106

Sequence	PBM E-score
AGGGAAGG	-0.354
TAAATCTA	0.0426
GCTCCCGA	-0.179
CGAGGTCA	-0.00251
CAAAATCA	0.23
TCTCAAGA	0.102
AAGAGTAC	0.038
CCGCGCCC	-0.268
AATAGAGC	0.0385
GGCCCGGA	-0.137
GTCTTGGA	0.0469
CGTATGGC	0.0738
CCCGTTAG	-0.265
AGGCCGGC	0.066
ATATGAAT	0.187
ACCCCAGC	-0.154
ATTACGAA	0.103
CCCGACAG	0.052
ACGCAAAC	-0.0978
TATTTTAA	0.17
CCCATCAG	-0.317
CGGCATAG	-0.0356
CCCAGCCA	-0.156
ATGTCTAG	0.373
CCTCGGTA	-0.0171

Sequence	PBM E-score
ATACGTGA	0.049
CGCGTTAG	-0.0976
ACCTATGC	-0.0639
ACGTCTTC	-0.00769
ATGAACTA	-0.0141
GATGGTGC	-0.309
AGGTGCTA	0.0106
AACTTTCA	0.0329
GCTCTCCA	-0.233
CTGACCGA	0.00348
AAAGAACC	0.126
AAAGGCCT	-0.122
GCAGCGTA	-0.126
CTTTTTGC	0.0698
AGATGTAG	-0.094
TACTGATA	0.148
AGTCACAC	-0.079
GCGCGTAA	0.0712
ATTTAGAC	0.151
CTAGTTCA	-0.0518
AGGGATAG	-0.2
AGATCGGC	-0.154
CAAGCTGG	-0.248
TCATTCGA	0.0861
TAGATAGA	0.124

Sequence	PBM E-score
AAACCGGG	-0.0257
CCAACGCC	-0.0515
ATTGCAAC	0.0266
CTGGAAGA	-0.0581
ATTTTTCC	0.21
AACTGCGA	0.0208
AACCCCAG	-0.172
AACCCCCG	-0.354
GCTGCTGA	-0.0498
AGGTGCGA	-0.112
AGAAAGAA	-0.0629
ATGCCTAA	-0.0976
CGCTGGAG	-0.239
CACGAACG	-0.00401
CTAACGTC	0.041
GAGTGACA	0.221
GAGGACTA	0.0516
ACCGCCTG	-0.279
ATCTACCA	0.023
GATGGTGA	-0.169
CCCACCAC	-0.22
GACTGCGA	-0.142
